# Measured values published in publication PMC4336329 (PLoS ONE, 2015).
# The whole screen tested about 310,000 compounds, of which about 14,000 (4.5%) showed an effect of 50% or more. Effects have a minus sign here. The list shows a part of the results.
# Molecular target: human ether-à-go-go-related gene (hERG) potassium channel (human, UniProt Q12809)
# Test: primary screen, population patch clamp on CHO cells stably expressing hERG
# 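Note: peak tail current of the secondary pulse compared with the same well before compound.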
# Sequence of human ether-à-go-go-related gene (hERG) potassium channel (Q12809 whole entry, looked up): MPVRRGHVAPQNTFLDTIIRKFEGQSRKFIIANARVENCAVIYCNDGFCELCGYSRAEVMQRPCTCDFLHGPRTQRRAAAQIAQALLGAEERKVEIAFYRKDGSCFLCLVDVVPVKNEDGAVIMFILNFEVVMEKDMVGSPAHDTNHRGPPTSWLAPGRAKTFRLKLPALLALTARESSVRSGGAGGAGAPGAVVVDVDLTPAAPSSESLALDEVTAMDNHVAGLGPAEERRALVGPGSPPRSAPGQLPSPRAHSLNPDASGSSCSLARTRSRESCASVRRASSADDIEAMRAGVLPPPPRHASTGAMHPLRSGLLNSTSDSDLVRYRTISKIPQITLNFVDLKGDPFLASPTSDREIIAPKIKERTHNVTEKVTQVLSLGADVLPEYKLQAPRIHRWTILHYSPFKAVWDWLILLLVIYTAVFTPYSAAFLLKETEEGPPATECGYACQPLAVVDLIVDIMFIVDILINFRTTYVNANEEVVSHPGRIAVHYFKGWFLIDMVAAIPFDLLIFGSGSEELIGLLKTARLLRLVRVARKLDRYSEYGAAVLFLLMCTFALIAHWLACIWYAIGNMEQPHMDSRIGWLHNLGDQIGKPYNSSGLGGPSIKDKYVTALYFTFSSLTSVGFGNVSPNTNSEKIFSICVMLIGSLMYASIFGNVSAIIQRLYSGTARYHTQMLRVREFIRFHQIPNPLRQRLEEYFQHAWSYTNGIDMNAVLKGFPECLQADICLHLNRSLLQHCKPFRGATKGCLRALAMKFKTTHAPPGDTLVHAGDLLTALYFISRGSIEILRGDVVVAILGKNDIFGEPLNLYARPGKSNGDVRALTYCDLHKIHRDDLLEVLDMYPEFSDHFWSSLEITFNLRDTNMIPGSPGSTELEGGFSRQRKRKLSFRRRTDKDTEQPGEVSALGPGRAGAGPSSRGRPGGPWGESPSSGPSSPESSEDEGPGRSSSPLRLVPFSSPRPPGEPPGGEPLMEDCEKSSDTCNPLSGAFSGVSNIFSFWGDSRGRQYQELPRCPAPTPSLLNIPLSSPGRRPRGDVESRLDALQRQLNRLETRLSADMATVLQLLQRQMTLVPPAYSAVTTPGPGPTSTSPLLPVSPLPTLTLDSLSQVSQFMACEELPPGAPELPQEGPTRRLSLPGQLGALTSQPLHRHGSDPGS
row,SMILES,"hERG current change (%, negative = inhibition) at 10uM [%]"
1,COc1ccc(-c2csc(N(CCCN(C)C)C(=O)c3ccccc3F)n2)cc1.Cl,-35.3
2,Cc1nc2ccccc2n1CC(=O)N/N=C\c1ccccn1,6.22
3,CC1CCCCN1S(=O)(=O)c1ccc(S(=O)(=O)N2CCCC2)cc1 (stereo not shown),5.9
4,CCOC(=O)C1CCN(C(=O)c2cc3cc(Cl)ccc3[nH]2)CC1,-36.6
5,Cc1ccc(OCCNC(=O)c2cccc(Oc3ccc(C(F)(F)F)cc3[N+](=O)[O-])c2)cc1,10.2
6,Cc1c(NC(=S)NC(=O)c2ccccc2Cl)c(=O)n(-c2ccccc2)n1C,33.4
7,O=C(Nc1ccon1)c1ccc(OC2CCCC2)cc1,-2.03
8,Cc1ccc(C2SCC(=O)N2c2ccccc2)cc1 (stereo not shown),6.94
9,Oc1ccc2oc3c(c2c1C=NCc1ccncc1)CCCC3,8.88
10,Cc1ccc(OCC(=O)Nc2nnc(S(=O)(=O)N3CCC(C)CC3)s2)cc1,19.2
11,COc1ccc(C)cc1NC(=O)CSc1nnc(-c2ccccn2)n1Cc1ccco1,-15.8
12,Cc1cc(Cl)c(OCCn2ccnc2)c(Br)c1.O=C(O)C(=O)O,-5.31
13,O=C(O)c1ccc(S(=O)(=O)c2ccc3c(c2)C(=O)N(NC(=O)c2ccccc2)C3=O)cc1,24.3
14,O=C(C(Cc1ccccc1)n1cccc1)N1CCN(c2ncccn2)CC1 (stereo not shown),3.52
15,COCCn1c(=S)[nH]c2cc(OC)c(OC)cc2c1=O,11
16,COc1cc(C(=O)NCc2ccc3[nH]c(C)cc3c2)cc(OC)c1OC,34.9
17,O=c1c2cc(Cl)ccc2nc(-c2ccc(Cl)c(Cl)c2)n1O,17.2
18,COc1cccc(S(=O)(=O)NCC(=O)Nc2ccc(C(C)(C)C)cc2)c1,-3.85
19,O=C(COC(=O)Cc1ccc(Cl)cc1)NCCc1ccccc1,8.03
20,CC(C)Oc1ccc(C2NC(=O)NC2=O)cc1 (stereo not shown),30.4
21,CC(Oc1ccc(Br)cc1)C(=O)Nc1ccncc1 (stereo not shown),-23.2
22,COc1c(O[C@@H]2O[C@H](CO)[C@@H](O)[C@H](O)[C@H]2O)cc2c(c1OC)-c1ccc(SC)c(=O)cc1C(NC(C)=O)CC2 (stereo partly shown),1.61

row,SMILES,"hERG current change (%, negative = inhibition) at 10uM [%]"
1,Cc1ccc(S(=O)(=O)N2CCN(C(=O)COC(=O)C3CCC3)CC2)cc1,-0.624
2,O=c1[nH]c2c(n(C3CCCCC3)c1=O)CCC2,-13.6
3,COc1cc(/C=C2\SC(=S)N(NS(=O)(=O)c3ccccc3)C2=O)ccc1O,-4.08
4,O=C(CCc1c[nH]c2ccccc12)N=Nc1c(O)[nH]c2ccccc12,10.6
5,Cc1cc(NC(=O)CSCC(=O)OCC(=O)c2cccc(Br)c2)no1,0.888
6,Cc1ccc(-c2nnc(SCC(=O)N/N=C/c3c(C)nn(-c4ccccc4)c3C)n2-c2ccccc2)cc1,-2.1
7,Cc1ccc(-c2cn3c(n2)CCCC3)cc1.Cl,-21.7
8,O=C(C[n+]1ccccc1)Nc1c(Cl)cc(Cl)cc1Cl.[Cl-],13.1
9,CC(=O)c1ccc2noc(-c3cccc(C)c3)c2c1,-12.3
10,O=C(CCNS(=O)(=O)c1cccc2nsnc12)NCCc1ccccc1,-4.18
11,O=C(NCc1ccco1)c1ccc(Cl)cc1[N+](=O)[O-],-0.845
12,O=C(c1cc2cc(Br)ccc2[nH]1)N1CCc2ccccc21,14
13,Cc1cccc2nc(CNC(=O)CC3C(=O)NCCN3Cc3cccc(F)c3)cn12 (stereo not shown),0.146
14,CN(CCO)c1nc(N)c(C#N)c(CC#N)c1C#N,7.36
15,CCOC(=O)CSc1nnc(-c2ccc(S(=O)(=O)N3CCOCC3)cc2)n1-c1ccccc1,19.5
16,COc1ccccc1C1CCN(Cc2ccc(Cl)cc2Cl)CC1,11.1
17,Cc1ccc(C(=O)NCCc2csc(-c3cccnc3)n2)cc1,7.66
18,CC/C(=N\NC(=O)c1ccc(N2CCCC2=O)cc1)c1ccccc1,-0.274
19,CCCCN(C(=O)CNC(=O)c1cccs1)C(C(=O)NC1CCCCC1)c1cccnc1 (stereo not shown),-5.69
20,O=C(Nc1cccc(Cl)c1)N1CCCC1,5.7
21,O=C(Nc1ccc([N+](=O)[O-])cc1)Nc1ccon1,2.74
22,COc1cc(OC)cc(-c2cc3nc(C)cc(N4CCN(C(=O)c5ccco5)CC4)n3n2)c1,1.49

row,SMILES,"hERG current change (%, negative = inhibition) at 10uM [%]"
1,Cc1ccc(COCC(CC(C)C)N2CCN(C(=O)c3cccc(C(F)(F)F)c3)CCC2=O)cc1 (stereo not shown),-25.8
2,S=C(NCc1ccc2[nH]c3c(c2c1)CCCC3)Nc1ccccc1Cl,10.3
3,CC(C)(C)C1=Nn2c(nnc2-c2ccccc2F)SC1,1.42
4,C/C(=N\NC(=O)c1c(C)nc2ccccn12)c1ccc(C(C)(C)C)cc1,3.45
5,CCOC(=O)C1C(=O)C=C(C)C(C(=O)OCC)C1c1ccc(OC)cc1 (stereo not shown),-8.31
6,CNC(=O)CN(c1ccc(Oc2ccccc2)cc1)S(=O)(=O)c1ccc(C)cc1,13.1
7,CCOc1cccc2cc(C(=O)N3CCOCC3)c(=O)oc12,14.6
8,COCCN1Cc2cccc(C(=O)Nc3cc(OC)ccc3OC)c2C1=O,-23.7
9,Cc1cc(C)c(N(C(=O)Cn2nnc3ccccc32)C(C(=O)NC(C)(C)C)c2ccsc2)c(C)c1 (stereo not shown),-44.1
10,N#CCc1ccc(NS(=O)(=O)c2ccc(N3CCCC3=O)cc2)cc1,-7.66
11,O=C(Cc1c(F)cccc1Cl)NC1=NCCS1,-3.44
12,O=C(N/N=C/C1=C(N2CCOCC2)C(=C\c2ccccc2)/CC1)Nc1ccccc1,6.96
13,COc1ccc(NC(=O)CCN2CCN(c3ccccc3F)CC2)c(OC)c1,-18.1
14,C[N+]1(CC(=O)OC2CCCCCCCCCCC2)CCCC1.[I-],-15.4
15,O=S(=O)(Cc1ccc(Cl)cc1)c1ccccc1-c1nnc(-c2ccc(Cl)cc2)o1,0.136
16,CCC(C)(C)n1nnnc1C(c1ccncc1)N1CCN(c2cccc(OC)c2)CC1 (stereo not shown),-17.9
17,CCn1c(SCc2nc3ccccc3c(=O)[nH]2)nnc1C(C)NC(=O)c1ccccc1F (stereo not shown),0.399
18,COc1ccc(C(=O)C2CCCN(C(=O)CCc3ccccn3)C2)c(C)c1 (stereo not shown),-14.7
19,CS/C(=N\N(C)C(N)=O)c1ccccc1,10.9
20,CCOC(=O)C(C)(C)NS(=O)(=O)c1ccc(Cl)c([N+](=O)[O-])c1,-11.1
21,O=[N+]([O-])c1ccc(O)c(/C=N/NC2=NS(=O)(=O)c3ccccc32)c1,12.7
22,O=C(NNc1ccccn1)c1ccc(Cl)nc1,1.48

row,SMILES,"hERG current change (%, negative = inhibition) at 10uM [%]"
1,CNC(=O)CSc1nc(N)c2c3c(sc2n1)CCC3,-31.7
2,CCN(CC)c1ccc(NC(=O)c2cc(Cl)ccc2OC)cc1,-10.4
3,CC1CCCCC1NC(=O)CCn1ccc2cc(S(=O)(=O)N3CCCC3)ccc21 (stereo not shown),-0.975
4,COC(=O)C1=C(C)NC(C)=C(C(=O)OC)C1c1ccco1,7.42
5,CCC(C)S(=O)(=O)c1snnc1C (stereo not shown),22.7
6,Cc1ccn2cc(CCNC(=O)c3ccc(Br)o3)nc2c1,-57.5
7,CCOC(=O)[C@H]1[C@H]2COc3cc(OC)ccc3[C@@H]2N2C(=O)CN(Cc3ccco3)C(=O)[C@@]12C,0.847
8,O=C(NCc1ccco1)c1cccnc1-c1nc2ccccc2s1,-19.6
9,CCCCN(C(=O)/C=C/c1ccccc1)C1CCS(=O)(=O)C1 (stereo not shown),-28.1
10,CN(C)C(=O)c1ccc(NC(=O)c2ccccc2-c2ccccc2)cc1,15.9
11,CN(C)S(=O)(=O)c1ccc(C(=O)OCC(=O)NCc2ccccc2)cc1,4.97
12,CC(C)C(NC(=O)c1cccnc1)C(=O)O (stereo not shown),5.78
13,COc1ccc(Cl)cc1NS(=O)(=O)c1cn(C)nc1C,7.1
14,CCOP(=O)(OCC)C(NC(=O)Nc1ccc(C)cc1)C(N)=O (stereo not shown),6.91
15,CC(C)=CCC/C(C)=C/C(N)=O,10.7
16,Cc1cc(C)c(C(=O)CSc2nc(C)cc(=O)[nH]2)c(C)c1,10.8
17,CCc1ccc(NC(=O)C2CCCN(S(=O)(=O)c3cccnc3)C2)cc1 (stereo not shown),-10.7
18,N#Cc1cccc(NCC(=O)Nc2cccc(S(=O)(=O)N3CCCCC3)c2)c1,-46.7
19,N#Cc1nc(-c2cccs2)oc1N1CCOCC1,8.23
20,Cc1cc(NC(=O)CSc2nc(CC(C)(C)C)nc3c2c(=O)n(C)c(=O)n3C)no1,4.05
21,COC(=O)c1c(CSc2ccc(C)c(C)c2)noc1C(=O)NCc1ccc(OC)cc1,-11.3
22,O=C(NCc1ccccc1F)C1CCCN(C(=O)Nc2ccc(F)cc2)C1 (stereo not shown),-5.03
